From the supplement of paper PMC3334620
The full ranking holds about 33,000 sequences; the median of “E-score (-0.5 to 0.5)” is about -0.035, and the highest 2% start at about 0.35. The list shows a part of the results.

The sequences below were run against T1, Pdr3 (UniProt P33200) (assay: PBM E-score (8-mer binding enrichment) (E-score (-0.5 to 0.5)); higher = stronger / more preferred TF binding; most listed sequences are background and not binding sites). Details: protein concentration: 200 nM; construct: GST-full length.
T1 sequence: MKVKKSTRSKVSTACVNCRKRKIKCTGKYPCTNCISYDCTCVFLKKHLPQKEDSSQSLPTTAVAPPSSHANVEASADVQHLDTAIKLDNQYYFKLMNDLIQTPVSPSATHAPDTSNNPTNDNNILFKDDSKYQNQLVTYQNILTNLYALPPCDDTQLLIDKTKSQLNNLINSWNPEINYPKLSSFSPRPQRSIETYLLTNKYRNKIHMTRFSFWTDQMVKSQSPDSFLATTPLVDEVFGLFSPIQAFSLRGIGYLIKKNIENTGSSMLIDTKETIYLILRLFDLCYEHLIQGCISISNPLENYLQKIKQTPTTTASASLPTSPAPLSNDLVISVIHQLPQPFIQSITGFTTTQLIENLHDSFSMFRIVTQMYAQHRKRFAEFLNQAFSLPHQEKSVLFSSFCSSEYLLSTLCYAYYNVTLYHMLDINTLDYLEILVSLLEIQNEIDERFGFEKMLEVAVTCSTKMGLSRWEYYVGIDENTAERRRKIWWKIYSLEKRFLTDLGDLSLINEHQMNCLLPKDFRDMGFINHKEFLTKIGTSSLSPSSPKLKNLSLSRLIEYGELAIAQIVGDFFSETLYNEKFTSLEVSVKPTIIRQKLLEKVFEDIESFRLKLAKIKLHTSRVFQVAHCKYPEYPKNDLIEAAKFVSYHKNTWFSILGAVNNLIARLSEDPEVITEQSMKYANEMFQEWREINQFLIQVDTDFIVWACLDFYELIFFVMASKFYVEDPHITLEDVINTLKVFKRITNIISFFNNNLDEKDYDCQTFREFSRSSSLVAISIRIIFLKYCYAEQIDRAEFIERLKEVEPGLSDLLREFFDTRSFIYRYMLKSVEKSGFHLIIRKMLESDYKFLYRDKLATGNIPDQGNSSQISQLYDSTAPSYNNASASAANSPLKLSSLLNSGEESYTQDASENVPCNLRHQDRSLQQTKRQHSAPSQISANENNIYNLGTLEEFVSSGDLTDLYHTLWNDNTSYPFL
Outline: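 Each ungapped eight-base word and its reverse complement, pooled, received an E-score from the Universal PBM Analysis Suite. Underlying scans, normalised with masliner, recorded fluorescent anti-GST bound to GST-tagged yeast transcription factors. These were applied at about 100-200 nM to universal all-10-mer Agilent arrays double-stranded by primer extension.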

Sequence	PBM E-score
AATGCCCA	-0.0176
CGCGGCCG	0.309
GTGCTTCA	-0.0273
AATGTACG	-0.0699
AAGACAAT	-0.136
CCTTCTAC	-0.169
AGTATAGA	0.104
ACAGTTCC	0.387
GGGAAGCA	-0.0013
CGCCAGCC	0.195
ACACTGGC	-0.0897
CGGCGGAC	0.289
ACGCCCCA	0.128
CTTCTTGC	0.0838
AGCCCCGA	-0.00177
ATCATAAG	-0.0374
TAGGCCAA	-0.0116
GAGCAGGC	-0.144
AAAGTATT	-0.102
CGGTGTAA	-0.045
CACGCGCC	0.114
GGTATAGA	-0.0535
GTGGGTAA	-0.077
GACAGGCA	-0.0484
ACTGAAGT	-0.0702

Sequence	PBM E-score
ATTCGATC	0.0561
GATGCTTA	-0.13
AGTCAACC	-0.133
GGCTGCAC	0.0936
GGCATTAA	-0.059
AAGTATCT	-0.111
GCGCAGAA	0.0635
CGTAGGAG	-0.165
ACTGGTCC	0.109
CACGTCAG	-0.0801
ATAACTAA	-0.0713
ATGTTTAC	-0.0373
AAACCTTG	-0.163
TCCATCAA	0.0544
GGAGGTGA	0.124
GAACAGAC	0.175
GTTGGGAA	-0.0395
GGGATATA	0.239
AGCCGGGC	0.137
CGCTCAAC	-0.0135
ACATTCGA	-0.102
ATAATAAT	-0.0285
AGCAGGAT	-0.0407
ACCCCCGC	0.126
AATCTTAA	-0.212

Sequence	PBM E-score
CGGCGAAA	0.233
CGGGCTGA	0.148
AGACTTAA	-0.325
AGAAATAA	0.0545
AATGGTGA	-0.219
GCCATAGA	-0.147
GTGGGCTA	-0.203
AGAAGTCG	-0.109
CATGTCTA	-0.202
ACATGCAT	-0.107
CCCACCGG	0.248
GTGGATGA	-0.0594
CGCCTGTA	-0.0268
ATCCGGAG	0.433
AAACAATG	-0.114
AATAAATG	0.0227
CAGCCTGA	-0.266
CCCATAAA	-0.0892
ACTTTTAC	0.0984
GTCAGAGA	-0.244
TTATGGAA	0.0348
ATGCAAAC	-0.02
ATTGACGA	-0.132
TACGCTGA	0.102
AGCACGGC	0.185

Sequence	PBM E-score
ACAGGAGT	-0.173
GAGTCCCC	-0.106
ATCCAATC	0.0224
ACTTAGAA	-0.165
TGGTAGAA	-0.0271
TAAAAGAA	-0.193
CCCTACCG	-0.00608
CATACTGC	0.0262
CAGGCGGG	0.0666
CAAGAATA	0.088
ATCTACGC	0.0856
ATGACTCA	-0.205
CTTCGAAA	-0.364
AAGTGAGG	-0.173
AACAGTCA	-0.188
ACAGTCAT	-0.164
ACCGCTCC	0.00116
AGTGGCAC	-0.145
CGGTAACC	0.198
GTTCAAAC	-0.0193
ATGAAGAG	-0.0741
AAACAGGC	-0.155
GGAGAGAA	0.0169
AAGAACAA	0.149
ATGGTACC	-0.0183

Sequence	PBM E-score
GAACCTGC	0.0396
AAGCCGTC	0.178
ACTGTCAT	-0.14
AGATTTAC	0.0482
ATGGAAGG	-0.197
GATCCGTA	0.336
CCTTGAGC	-0.168
CTTCGATC	-0.0632
TGCACACA	-0.0347
CACAACGG	0.0081
CATGGCCG	0.172
GGTGTTTA	0.0333
CCGAGAGG	0.0579
GTTCGGGA	0.233
GAGCAAGA	0.0319
CAGCCTCG	-0.0552
ATTCCGTG	0.467
ACTATCTA	-0.0229
CAGAAGAG	-0.195
CCGTCGCG	0.323
AAATTTGT	-0.0326
AGGAAGAT	0.0952
GAGAAGAC	-0.218
AGACTAAA	-0.133
CACGCCAG	-0.0644

Sequence	PBM E-score
ATCCGAGC	0.307
CCACGAAG	-0.257
CTTTACCA	-0.316
CCGTGCCG	0.335
CGTACAAA	-0.158
CCTGCCCG	0.2
AGAATGTG	-0.22
GTGAGATA	0.125
ATTATAAC	0.0157
CTGGGCCA	-0.269
CCTGGATC	-0.0952
ATCTTCTC	0.178
CTGCGCAG	0.0626
CTCACGCA	0.0693
CCATGCCC	0.0192
ACTTGTTA	0.0318
ACCCGCAA	0.0725
CGAACCTA	-0.0323
GCTGGCAA	0.0154
ATTAGTGC	0.15
TCAGGCGA	-0.115
CACAGCGG	0.0611
AATAGGGA	0.0428
GAACAATA	0.253
ATGCCAAC	-0.0832

Sequence	PBM E-score
CAACGATA	-0.11
AAATCTAG	-0.144
GCGACTGA	-0.185
GTGTTAGA	-0.0967
AGGAGTCG	-0.215
CAGCACAG	-0.0892
AGATCCGC	0.351
ATCACGCC	0.0371
CCTACGCC	-0.298
AGAGCGAG	-0.0919
ACACACCA	-0.0588
GTAGACGA	-0.201
TCATAGAA	-0.0617
GACGATAC	-0.0065
GAAAGTAC	0.0719
AGAGCCCC	-0.225
ACACTTGA	-0.202
CCACATAC	-0.0749
GACCAACA	0.142
ATAGAAGA	-0.121
GCATCATA	-0.063
ACATAGGT	-0.165
